The RNAGym collection of RNA variant scans (doi:10.1093/nar/gkz1192)
Read counts are not given, so values of variants with three or more changes are uncertain.

B1: CPEB3 Ribozyme (parent)
chain: UAACAGGGGGCCACAGCAGAAGCGUUCACGUCGCAGCCCCUGUCAGAUUCUGGUGAAUCUGCGAAUUCUGCUGUAUAUCUC

Variants of: B1
Assay: self-cleavage, relative activity (ratio to wild type); higher = more cleavage; in vitro, sequencing
How it was run: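 After error-prone PCR and barcoding, CPEB3 ribozyme mutant libraries were transcribed with T7 RNA polymerase at 37°C for 5 hours, then given 15 min with DNase I before an EDTA stop, and they cleaved during both steps. Reverse transcription with template switching preceded Illumina sequencing. Relative activity divides a variant's cleaved/total read fraction by the unmutated ribozyme's. At least 5 reads were required per variant, and three batches were averaged.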

Variant	self-cleavage
U1C A5G C39U U67C U69C	0.06
U1C A5G C62U	0.34
U1C A5G G9A	0.44
U1C A5G G33A A64G	0.08
U1C A5G U49C U58A U72A U76A	0.31
U1C A5G U66A	0.1
U1C A5G U74C U80C	1.15
U1C A5U A15G A35G A47G U76G	0.25
U1C A5U A20G U43A U51C U67C	1.16
U1C A5U A28G A35U C50U	0.35
U1C A5U A35G C37U U43C U69C	0.52
U1C A5U A35U	0.67
U1C A5U C39U A47U U54C A56C A77G	0.1
U1C A5U G7A C38A A64G U78C	0.11
U1C A5U G19U	0.12
U1C A5U G19U C71A	0.06
U1C A5U U31C A56G U69C C81G	0.18
U1C A5U U41C A64G	0.46
U1C A13C A15G U41C U51C U60C	0.42
U1C A13C A20G U54C	0.34
U1C A13C A35U	0.27
U1C A13C C23U U49C U58C U60A U72A	0.06
U1C A13C U80C	0.82
U1C A13G A15C	0.6

Variant	self-cleavage
U1C A13G A28G C39U	0.15
U1C A13G A64G	0.6
U1C A13G C44A A45G U67A U78A	0.05
U1C A13G G16A G24A A64G	0.12
U1C A13G U25C U72A	0.3
U1C A13G U26C	0.15
U1C A13G U31A U48C C59U U72C	0.03
U1C A13G U31A U54A A65U	0.06
U1C A13G U51A U69G U78C	0.48
U1C A13U A15G A18U C39G U69A U72A	0.05
U1C A13U A18G C29U U43C	0.08
U1C A13U A18G G22A A47G	0.42
U1C A13U A20G C29A U67C C68G U76C	0.14
U1C A13U A20G U26C A35G U78C	0.76
U1C A13U A35G U58A	1.12
U1C A13U A57G	0.76
U1C A13U U41A	0.35
U1C A13U U54C U60C U80C	0.75
U1C A13U U60C U69C	0.35
U1C A13U U69C	0.4
U1C A15C A18U A21C C40U A56G	0.07
U1C A15C A20G A75U	0.87
U1C A15C U25C U41G	0.03
U1C A15C U51C U54C U67C	0.09

Variant	self-cleavage
U1C A15G A20G A45G A47C A64G	0
U1C A15G A21U U80A	0.46
U1C A15G A57G	0.89
U1C A15G C23U G42C A57U	0.04
U1C A15G C23U G42U U74C	0.05
U1C A15G U25A U41A	0.8
U1C A15G U25C	0.35
U1C A15G U25C G46A U49C U66C U78C	0.04
U1C A15G U26C A47C A64G G73A	0.07
U1C A15G U26C U48C G52U U69A	0.4
U1C A15G U26C U54C U76C	0.24
U1C A15G U41A U66G	0.21
U1C A15G U51C	0.38
U1C A15G U67C	0.14
U1C A15G U72C	0.99
U1C A15U A20G C23U U31A U43C	0.05
U1C A15U A28G U76C	0.33
U1C A15U C17U U43A A64G	0.29
U1C A15U U25C A57G	0.4
U1C A18C A35G U67C U72C U74A	0.28
U1C A18C A47G A57G U69C U74C	0.09
U1C A18C U26A A28G U58C	0.23
U1C A18C U78A	0.12
U1C A18G A20G G22A U31C	0.26

Variant	self-cleavage
U1C A18G A20G U31C U72C	0.62
U1C A18G A28G U48C U74C U78C	0.04
U1C A18G A64G U69C U72C U76C	0.3
U1C A18G C27G U54C A56U	0.03
U1C A18G C32A C37A A45G U69A	0.15
U1C A18G C50A	0.3
U1C A18G G33A U80C	0.37
U1C A18G U25C	0.41
U1C A18G U26C A28C G33A G63A A75G	0.04
U1C A18G U26C U31A A47G U66A U67C	0.04
U1C A18G U43C G70C U80C	0.08
U1C A18G U51C A64G U67C U80A	0.13
U1C A18G U54A	0.55
U1C A18U A21G C32G A47U U69A	0.15
U1C A18U A65G U76A	0.32
U1C A18U C27G A57G	0.19
U1C A18U U25C C62U U74C	0.06
U1C A18U U25C U43C U54C U76C	0.22
U1C A18U U26C C71G	0.07
U1C A18U U43G C62G	0.05
U1C A18U U58C	0.29
U1C A18U U58C U67C	0.13
U1C A18U U60A	0.25
U1C A20G A28G U74A	0.53

Variant	self-cleavage
U1C A20G A35U U69A A77G	0.06
U1C A20G A77C	0.27
U1C A20G U25A U26C U74C	0.37
U1C A20G U25C A35G U43A	0.18
U1C A20G U31C A45U A56G	0.09
U1C A20G U41C C71A A77G U80C	0.37
U1C A20G U43A U80C	1.06
U1C A20G U72C	0.43
U1C A20U A56G U67A U72C	1.06
U1C A20U C37A	0.24
U1C A20U G53A U54C	0.13
U1C A20U U31C A35U U41C	0.25
U1C A20U U54C U72A	0.18
U1C A20U U67A	0.68
U1C A21C A28G A56C U67C U78C	0
U1C A21G A35G	1.09
U1C A21G A45C	0.21
U1C A21G C39U	0.4
U1C A21G U25C A45G	0.7
U1C A21G U31A U48C U54G A65G U78C	0.1
U1C A21G U43C A64G A65G	0.51
U1C A21G U43C C79U	0.55
U1C A21G U78C	0.42
U1C A21U A47U U49C U74A A75G	0.04

Variant	self-cleavage
U1C A21U C34U	0.08
U1C A21U U25C	0.33
U1C A21U U26A	0.15
U1C A21U U31A U41A G42U	0.11
U1C A28C A64G U67A U72C	0.15
U1C A28C U41C A45G	0.38
U1C A28C U69C	0.13
U1C A28G A35G U51A U69G	0.75
U1C A28G A56C U67C U78C	0.18
U1C A28G A65U	0.33
U1C A28G A77C	0.81
U1C A28G C38U A47G U51A	0.26
U1C A28G C50A U51C A57G	0.26
U1C A28G G52A A56C U67C A75U U78C	0.09
U1C A28G U31C C32U G33A U72A	0.08
U1C A28G U51A U74C	1.11
U1C A28U G33C A75G U76C	0.22
U1C A28U G53A U60C U67G U78A	0.12
U1C A28U U43C G63C U72A U80C	1.08
U1C A28U U49C	0.32
U1C A35G A64U	1.06
U1C A35G A65G A75G	0.97
U1C A35G U43C A65G U72C	0.64
U1C A35G U58C A64G	1.02

Variant	self-cleavage
U1C A35G U66C U78C C79A	1.24
U1C A35U A65G A75U	0.14
U1C A35U C62A	0.28
U1C A35U U41C	0.48
U1C A35U U43A U54C U60A	0.2
U1C A35U U74A	0.78
U1C A45G U58C	0.25
U1C A45G U69C U80C	0.19
U1C A45U A56G	0.36
U1C A45U U48C G63A	0.07
U1C A45U U66A	0.08
U1C A47C A64G	0.4
U1C A47G A64G U67A	0.21
U1C A47G U80C	1.04
U1C A47U U51A U69A	0.05
U1C A56G A64U U69A U80A	0.2
U1C A56G U60C	0.5
U1C A56U U58A	0.31
U1C A56U U66C	0.25
U1C A56U U67C	0.18
U1C A57G A75U	0.74
U1C A57G C68U U72A	0.15
U1C A57G U69A	0.56
